# The whole screen tested about 110,000 compounds, of which about 40 (0.04%) were called active. The shares of active, inactive and inconclusive entries below differ from those in the screen. The call rests on the fitted dose curve; in most records, active means well fitted curve in the direction sought with a large enough effect in the signal ratio (not every such curve was filed as active); inconclusive means small, poorly fitted or top-dose-only effect, or a change in a side signal; inactive means flat fitted curve, though single readings scatter; the % refers to the signal ratio. Where the call is inconclusive, the potency comes from a doubtful curve fit.
# Assay: IkB Signaling;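 on IkBa stabilization activation: 0% = basal untreated cells and 100% = reference inhibitor full response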
# Conditions: ABC-DLBCL IkBa-CBG/CBR dual luciferase ratio (green luciferase fused to IkBa over red control in OCI-Ly3 lymphoma cells), 4 h; IkBa stabilization activation: at 57.1 µM (top of the series), scaled: untreated 0%, proteasome inhibitor 100% unless noted
# Summary of the method: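 Curves were fitted separately to fusion (green), unfused (red) and ratio luminescence, then classed by r2, magnitude and activity. Cells: OCI-Ly3, 4 h compound plus doxycycline at 37C; 10 uM MG-132 defined full response.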
# Potency means the concentration at half of the fitted maximal effect.
SMILES,IkBa stabilization activation,Potency
C=CCn1c(SCC(=O)c2cccs2)nc2sc(C)cc2c1=O,inconclusive: 3.41% [signal inhibitor],
Cc1ccc(Cl)cc1-n1ncc2c(NCc3ccc(F)cc3)ncnc21,inconclusive: 1.38% [signal inhibitor],
CCN(CC)S(=O)(=O)c1ccc2c(c1)nc(CN(C)C(=O)Nc1cccc(Cl)c1)n2C,inactive: -0.878%,
COc1cccc(C(=O)c2cn(CC(=O)Nc3cccc(C(F)(F)F)c3)c3nc(C)ccc3c2=O)c1,inconclusive: 4.12% [signal inhibitor],
CC(=O)N1CCc2cc(S(=O)(=O)NC(CC(C)C)C(=O)NCCc3ccc(C)cc3)ccc21 (configuration not stated),inconclusive: 3.3% [signal inhibitor],
COc1ccc(Cn2c(CCC(=O)Nc3ccc(C)c(C)c3)nc3cccnc32)cc1,inconclusive: 15.2% [signal activator],
CCCN(CCC)C(=O)CN1C(=O)CSc2ccc(S(=O)(=O)N3CCC(C)CC3)cc21,inconclusive: -0.248% [signal inhibitor],
CCOC(=O)CC(=O)CSc1ccc2nnc(-c3cccc(F)c3)n2n1,inactive: -0.767%,
CCCCNC(=O)c1cc2c(=O)n3cccc(C)c3nc2n(Cc2ccccc2)c1=N,inactive: 5.07%,
CN(C)Cc1nc2c(c(=O)[nH]1)C1(CCCCC1)Cc1ccccc1-2,,"inconclusive: 31.6 µM [rising, single point]"
CCOCCc1nnc(NC(=O)c2cc(OC)c(OC)c(OC)c2)s1,inactive: 3.04%,
Cc1ccc(-c2nc(-c3cc4cccc(OCc5ccc(F)cc5)c4oc3=O)no2)cc1,,inconclusive: 10 µM [signal inhibitor]
CCOC(=O)c1ccccc1N/C=C1\CCCC1=O,inactive: 2.41%,
Cc1occc1-c1nnc(SCC(=O)c2ccc(F)cc2)n1Cc1ccco1,inactive: 0.251%,
CCN1CCc2nc3sc(C(=O)c4ccccc4)c(N)c3cc2C1,inconclusive: -1.12% [signal inhibitor],
CC(CNC(=O)c1ccc(CSc2nc3ccncc3n2Cc2ccc(F)cc2)cc1)c1ccccc1 (configuration not stated),inconclusive: 2.28% [signal inhibitor],
Cc1nn(Cc2ccccc2)c(C)c1NC(=O)CSc1nnc(-c2cc(Cl)ccc2O)n1C,,"inconclusive: 1 µM [signal inhibitor, full curve]"
CCc1ccc(CNCc2c(C(=O)O)c(C)n(Cc3c(F)cccc3Cl)c2C)cc1,inconclusive: 0.83% [signal inhibitor],
CCOc1cccc(C(=O)N(Cc2ccc(N(C)C)cc2)CC2CCCO2)c1 (configuration not stated),inconclusive: 5.99% [signal inhibitor],

SMILES,IkBa stabilization activation,Potency
CC1CCN(S(=O)(=O)c2ccc3c(ccc(=O)n3CC(=O)Nc3ccc(C(C)C)cc3)c2)CC1,inactive: 1.37%,
COc1ccc(C(=O)/C=C/Nc2cc(C)on2)cc1,inactive: 5.62%,
N#Cc1c(N)n(CCCN2CCOCC2)c2nc3ccccc3nc12,inactive: -2.79%,
COc1ccc(C(=O)NCc2oc(-c3ccccc3)cc2C(=O)O)cc1,inactive: -2.9%,
CCOc1ccc(C(=O)CCN2CCCCC2)cc1,,"inconclusive: 2.51 µM [signal inhibitor, full curve]"
COc1ccc(-c2cccc(NS(=O)(=O)c3ccc(C)s3)c2)nn1,inconclusive: 0.096% [signal inhibitor],
COCCCNC(=O)c1oc2c(c1C)-c1nn(Cc3ccc(Cl)cc3)cc1CC2,inconclusive: -1.63% [signal inhibitor],
O=C(c1cc2ccccn2n1)N1CCN(c2ccccn2)CC1,inconclusive: 17.3% [signal inhibitor],
COC(=O)C1=C(C)N(c2ccc(F)c(Cl)c2)C(=O)C1,,"inconclusive: 25.1 µM [signal inhibitor, partial curve]"
O=C(O)c1c(-c2ccccc2)oc2ccc(OCc3ccc(Cl)c(Cl)c3)cc12,,"inconclusive: 39.8 µM [signal inhibitor, single point]"
Cc1ccc(Nc2nc(N)nc(CN3CCN(Cc4ccc5c(c4)OCO5)CC3)n2)cc1,inconclusive: 0.965% [signal inhibitor],
COc1ccc(S(=O)(=O)Nc2ccc3oc4c(c3c2)C(=O)CC(C)(C)C4)cc1,inconclusive: 1.26% [signal inhibitor],
CCn1c(=O)c(C(=O)NCCCO)c(O)c2ccccc21,inactive: 0.832%,
O=c1[nH]c2cc3c(cc2cc1CN(Cc1ccccc1)Cc1nnnn1Cc1ccco1)OCCO3,,"inconclusive: 10 µM [signal inhibitor, partial curve]"
Cc1ccc(C)c(N2CCN(C(=O)c3cc4c(=O)n(Cc5ccco5)ccc4nc3C)CC2)c1,inconclusive: 5.5% [signal inhibitor],
COc1cccc(C(=O)Nc2cccc(NC(=O)c3ccc(Cl)cc3Cl)c2)c1,,inconclusive: 20 µM [signal inhibitor]
CCC(C)Nc1sc(S(=O)(=O)CC)nc1S(=O)(=O)c1ccc(C)cc1 (configuration not stated),inconclusive: 2.88% [signal inhibitor],
COC(=O)c1[nH]c2ccccc2c1NC(=O)CN1CCN(c2cccc(Cl)c2)CC1,inconclusive: -1.24% [signal inhibitor],

# From PubChem BioAssay AID445 (National Center for Advancing Translational Sciences (NCATS), 2006)
